Measured values: PubChem BioAssay AID743279 (National Center for Advancing Translational Sciences (NCATS), 2014)
The campaign covered roughly 360,000 compounds. About 17,000 (4.7%) were called active. This list was built around the results that the source calls inconclusive (neither active nor inactive); the mix of calls is not that of the screen. No stated cut-off is given here; in the data, active means activity change below about -50%; inconclusive means mostly about -30% to -49%; inactive means weaker than that.

Assay: qHTS for Inhibitors of Inflammasome Signaling: IL-1-beta AlphaLISA Primary Screen
Conditions: THP-1 LPS/ATP IL-1B secretion, 16 h; at 57.5 µM, hits give low values
Method in brief: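 Secreted IL-1B measured by AlphaLISA bead assay after 16 h compound exposure of THP-1 cells; compounds (final up to 57.5 uM) added 1 h before LPS (250 ng/mL) and ATP (1.25 mM) stimulation; lower signal means less secretion.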
On the % scale 0 is the no-effect control and ±100 the full control effect.

Activity change, inactive:
CCn1c(COc2ccc(C)cc2)nnc1SCc1nc2ccccc2[nH]1 -10.8%
COc1cccc(C2C3CN(C)CC=C3C(C#N)=C(N)C2(C#N)C#N)c1OC (stereo not given) -19.3%
O=C(COc1ccc(-n2cnnn2)cc1)Nc1cc(Cl)cc(Cl)c1 0.739%
Cc1cc2nc(-c3nnnn3C3CCCCC3)c(=O)[nH]c2cc1C 0%
CN1C(C(=O)Nc2ccc(OC(F)(F)F)cc2)=CC(c2cccs2)=NS1(=O)=O -4.05%
COC(=O)c1ccccc1S(=O)(=O)N1CCC(C(=O)OCc2ccc([N+](=O)[O-])cc2)CC1 12.8%
O=C(CSc1nc(COc2ccccc2)nc2ccccc12)NC1CCCC1 -1.45%
O=S(=O)(c1cc(F)ccc1F)N1CCN(C2CCCCC2)CC1 11.6%
O=C(COC(=O)C1CCCCC1)Nc1cccc(Br)c1 -16.7%

Activity change, active:
O=C(CCl)Nc1ccccc1C(=O)NCc1ccccc1 -82.9%
Cc1ccc(N(CC(=O)NCC(O)c2ccccc2)S(=O)(=O)c2ccc(C)cc2)cc1 (stereo not given) -93.9%

Activity change, inconclusive:
O=C(OCC(=O)N1CCCC1)c1cnc(Cl)c(Cl)c1 -35.4%
CCCc1cnc(Nc2nc(C(N)Cc3ccc(C(F)(F)F)cc3)cs2)nc1 (stereo not given) -44.1%
COc1cccc(NC(=O)/C=C/c2ccco2)c1 -36.2%
Cc1cc(NC(=O)C2CCCN2C(=O)Nc2cccc(Cl)c2)ccc1-n1cnnn1 (stereo not given) -36.8%
Cc1ccc(S(=O)(=O)N2CCOCC2)cc1C(=O)NCCN1C(=O)S/C(=C\c2ccccc2Cl)C1=O -32.7%
CC(C)(C)C1CCc2sc(-c3nnc(CCl)o3)cc2C1 (stereo not given) -33.9%
O=C(/C=C/c1cccc(Cl)c1Cl)OCC(=O)N1CCOCC1 -48.5%
CCn1cc(Br)c(C(=O)Nc2cccc(Cl)c2)n1 -42.4%
CCCOc1ccc(-c2nc(C#N)c(N3CCN(C)CC3)o2)cc1 -37.1%
CC(=O)c1cccc(OCC(=O)Nc2ccccc2N2CCOCC2)c1 -42.6%
Cc1c(CCC(=O)NCCCn2ccnc2)c(=O)oc2cc3oc4c(c3cc12)CCCC4 -50%
CN(Cc1ccccc1)C(=O)COC(=O)c1c[nH]c2ccccc12 -34.5%
C/C(=N\OCC(=O)Nc1ccccc1C(C)(C)C)c1ccc2c(c1)OCCO2 -41.1%
N=c1c2c(-c3ccccc3)c(-c3ccccc3)n(Cc3ccco3)c2ncn1CCO -44.3%
